Reference: the supplement of paper PMC12632987
Whole data set: some 2,300 sequences, median “median log2 fold change of GCK-ALFA target abundance (FLAG IP / Myc IP barcode read proportion)” near 0.095, cut for the lowest 2% near -0.47. This is one part of the list.

B1: LC3A_28_1050 (protein)
chain: DATRAALEAALAAARAAAAAGEEALVTLTINKDSTDEDVDLVLETMEEIAEIGRTLPRVTIIVDVDHPNKEEVTTRIAEKGDELEARYPNVTVIIALSEE
B2: LC3A_132_248 (protein)
chain: SEEELKEALEELKEILEKIVEALKNGEDPLPLIVELEEKALEIAEKLSLEETEELIDEAKEYAEELFEEELDPNDEEARRTLDIIEMLLDGVLIEKELKS
B3: LC3A_147_492 (protein)
chain: AEIDIDILVKDEESAKEVVEKIKEIVEKMRKKGVEVELEVEIEKLDENTYYVRIRIRIRAPTKEEEEAAANEIISEIDELIEKMKDKILAAIISRELLEE
B4: LC3A_28_1079 (protein)
chain: SAIAEQVAAALAEARAAAAAGEEAVLTITVDENATEEDIEIVIEGLKELAELAKTGGKVSVIIDLDGDIPEEHIDKLADAAEAVEAANPNLTVIIALPDE
B5: LC3A_3_1775 (protein)
chain: SEEIIEEARKLLRELGRSEETIEAAERAITALLEKGYEKAAEKLIELVKENADLDDEDLLAMFEEILEVVETQDLSEEEVIKRIEEEARLARLAHEMDSL
B6: LC3A_3_1747 (protein)
chain: MEEKLKEVRELLKEMGKSEETIEGALELVKELLERGFEKAVETFLELLKESEDLSDEILLDMIKDILDYVTNNDINEEEAIKKIKEEFKIAKNENEIIEL
B7: LC3A_free_39_2247 (protein)
chain: MEEEMEEADRELEELAETLSPEARKALKELRELLKGNVEALRIVAEGVRELLEEGGDVLAFLKEAVELVKELQAAGKSDEEINEELRELKEDFLNLIPLE
B8: LC3A_3_1498 (protein)
chain: REELLERLREVLEELGASEEQIERVLAAAQRILDKGLENTVETLIELFEENRDLSPEQVLTAVEIVADEVEEKNLDEESAIEYAKRIVEDVKEIEEIEEE

Biological target: MAP1LC3A, Q9H492
Experiment: median log2 fold change of GCK-ALFA target abundance (FLAG IP / Myc IP barcode read proportion) (log2 ratio); each designed protein is fused to an ALFA-tag nanobody in HEK293 cells to bring the named protein to FLAG-tagged glucokinase (GCK); Myc marks an untargeted standard; higher = target protein stabilised (more abundant)
Details: target protein: 3xFLAG-MCP-GCK-ALFA reporter; HEK293 landing pad (RPLP)
Summary of the method: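 Binders fused to an ALFA nanobody were recombined as a library into HEK293 landing-pad cells, which were induced with 2 μg mL^−1 doxycycline and then transfected to express a FLAG-tagged target and a Myc-tagged standard. After 48 h, circular RNA barcodes recovered by anti-FLAG and anti-Myc immunoprecipitation of lysates were reverse transcribed, amplified and sequenced. Each binder's target abundance is the median log2 ratio of FLAG to Myc barcode read proportions, from barcodes present at ≥10^−7 in both replicates, binders carrying ≥3 barcodes per replicate, a 10^−6 pseudocount and pooled replicates.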

| Binder | median log2 fold change |
| --- | --- |
| B1 | -0.231 |
| B2 | -0.698 |
| B3 | 0.0362 |
| B4 | -0.288 |
| B5 | 0.15 |
| B6 | 0.155 |
| B7 | 0.0889 |
| B8 | 0.369 |
